Source: ChEMBL document CHEMBL4888484, “Replenishing the malaria drug discovery pipeline: Screening and hit evaluation of the MMV Hit Generation Library 1 (HGL1) against asexual blood stage Plasmodium falciparum ,using a nano luciferase reporter read-out” (2022)
Out of some 150,000 compounds screened, about 540 (0.36%) showed an effect of 50% or more. The list shows a part of the results.

Test system: Plasmodium falciparum
Experiment: Primary screen in NF54 nanoGlo assay, in single point, at 2uM, 72h; a lower Z score goes with more inhibition
Format: functional, Erythrocyte
Settings: timepoint 72 hour

| Compound | % Inhibition [%] | Z score |
| --- | --- | --- |
| Cc1cc(CN(C)C(=O)NC2CCCCCCC2)n[nH]1 | 7 | -0.96 |
| CC(C)c1ocnc1C(=O)N(CC(F)F)c1cccc(Cl)c1 | 30 | -3.36 |
| CN(Cc1ccncn1)Cc1cc(Cl)ccc1OC[C@@H](O)CN1CCCCCC1 | 1 | -0.18 |
| NC(=O)C(=O)N1CCC[C@@]2(CCC(=O)N(Cc3ccccc3)C2)C1 | -1 | 0.12 |
| Cc1ccc(-n2nc(N3CCCN(C(=O)c4cccc(C)c4)CC3)ccc2=O)cc1 | 9 | -1.07 |
| CC(C)(C)c1nc2ccc(NC(=O)c3nc(=O)[nH][nH]3)cc2s1 | -12 | 1.22 |
| COc1ccc(S(=O)(=O)N2CC(C(=O)N3CCCC3)C(c3cc(OC)ccc3OC)C2)cc1 (stereo unspecified) | -17 | 1.58 |
| O=C1c2ccccc2N[C@H](c2ccoc2)N1O | -46 | 5.45 |
| COC(C)(C(=O)N1CCC(CNC(C)=O)C1)c1ccccc1F (stereo unspecified) | 4 | -0.73 |
| COCCc1nc(CC(F)(F)F)n(-c2ccc(S(N)(=O)=O)cc2)n1 | 0 | -0.03 |
| C[C@H](NC(=O)OC(C)(C)C)c1noc(Cc2ccn[nH]2)n1 | 2 | -0.3 |
| O=C(c1cccc[n+]1[O-])N1CCc2[nH]c3c(Br)cccc3c2C1 | 12 | -1.42 |
| O=C(NCC1CCC=CCC1)Nc1nnc(C2CCOCC2)s1 | -4 | 0.52 |
| CCc1nc(CNC(=O)N2CCO[C@H](c3ccnn3C)C2)co1 | 5 | -0.72 |
| CC(C)C(=O)N(CCCN1CCCC1)[C@H]1CCN(S(=O)(=O)c2ccc(F)c(F)c2)C1 | 0 | -0.06 |
| O=C([C@@H]1CC=CCC1)N1CCC(N2C(=O)COCC2=O)CC1 | 12 | -1.62 |
| O=C1O[C@H]2CN(Cc3c(F)ccc(F)c3F)C[C@H]2N1Cc1ccccn1 | -1 | 0.16 |
| CCCc1ccc(O[C@@H](C)c2nc(-c3nonc3N)no2)cc1 | -13 | 1.72 |
| O=C([C@H]1CCc2nncn2C1)N1CCc2c(Cl)cc(F)cc2C1 | -3 | 0.62 |
| O=C(c1ccc(Cl)s1)N1CC(Oc2nc3ccccc3s2)C1 | -12 | 1.32 |
| CCc1ccc(-c2c(-c3ccccc3)ncn2Cc2cc(O)nc(C)n2)nc1 | -2 | 0.38 |
| Cc1nc(CCN2C(=O)NC(C)(C)C2=O)sc1C | 2 | -0.26 |
| COc1cc2c(cc1CN1CCNC(=O)[C@@H]1Cc1ccccc1)OCO2 | 8 | -1.04 |
| CC(C)n1ccc(CN2c3cc(Cl)ccc3CS2(=O)=O)n1 | -1 | 0.17 |
| O=C(CCn1cc(Cl)cn1)N1CCN(CC2CC2)[C@@H]2CS(=O)(=O)C[C@@H]21 | -12 | 1.13 |
| C[C@@H](CNc1cccc(F)c1C#N)c1nccs1 | -6 | 0.82 |
| O=C(N[C@H]1CC(=O)N(CCOc2ccccc2)C1)C1CCC1 | -9 | 1.81 |

| Compound | % Inhibition [%] | Z score |
| --- | --- | --- |
| CN(C)C(=O)[C@]12CCS(=O)(=O)N(C)[C@@H]1CCN(C(=O)c1nccc3ccccc13)C2 | 5 | -0.57 |
| COCC(=O)Nc1cc(C(=O)N[C@H]2CCCc3ccccc32)c2c(c1)nc(-c1ccncc1)n2C | -2 | 0.23 |
| COCCNC(=O)CCc1cn(-c2ccccc2)nc1-c1ccc2c(c1)OCO2 | -10 | 1.35 |
| NC(=O)[C@@H]1CCCN1CCCc1ccccc1Br | -10 | 1.04 |
| Nc1cc(COC(=O)C2CCCCC2)ccn1 | 1 | -0.22 |
| Cn1cc([C@@H]2CS(=O)(=O)CCCN2C(=O)c2cnc(NC3CC3)s2)cn1 | -13 | 2.08 |
| CCC(C)(OC)c1noc(C2C[C@@H]3CC(=O)[C@H]2C3)n1 (stereo partly specified) | -7 | 0.72 |
| CC(O)CC1CCCCCN1C(=O)CCc1cnccn1 (stereo unspecified) | -3 | 0.6 |
| CC1(C)CN(c2ccnc(C(N)=O)c2)CCc2ccccc21 | -18 | 2.76 |
| O=C(Nc1ccc(F)c(C2CC2)c1)N1CCC[C@@H]1Cn1ccnc1 | -10 | 0.92 |
| COC[C@H]1CCCN(CC(=O)Nc2nnc(C)s2)C1 | -9 | 0.99 |
| Cc1cc(=O)c(C(=O)N2CC[C@@]3(CCCN(C4CCCCC4)C3=O)C2)c[nH]1 | -1 | 0.06 |
| Cc1ccc(-c2ccc(C(=O)N(C)C)cc2)c(-n2cccn2)c1 | -4 | 0.71 |
| Cc1ncsc1C(=O)NC1CCOC1c1ccc(Cl)cc1 (stereo unspecified) | 2 | -0.27 |
| CCOC(=O)C1=CNS(=O)(=O)N=C1 | -11 | 1.29 |
| CCS(=O)(=O)Oc1cc(CN(CC(C)C)C(=O)C(C)C)ccc1OC | -13 | 1.27 |
| CCN1C(=O)C2CN(C(=O)C(C)Oc3ccc(-c4ccccc4)cc3)CCN2C1=O (stereo unspecified) | -2 | 0.42 |
| COc1ccc(N2CCN(C(=O)CNc3ccccc3N3CCCCC3)CC2)cc1 | -12 | 2.27 |
| Cc1occc1-c1cc(NC(=O)c2ccc(F)cc2)n(CCO)n1 | 0 | 0.05 |
| O=C(Cc1ccn(-c2ccccc2)n1)NC[C@@H]1CCC[C@H]1O | -13 | 2.43 |
| Cc1cc(F)c(CC(=O)OCc2nc(C)c(C)o2)cc1F | 5 | -1.04 |
| Oc1c(CN2CCOCC2)c(-c2ccccc2)nc2ccc(Cl)cc12 | -6 | 0.85 |
| CN(Cc1cscn1)C(=O)c1nn(Cc2ccccc2)c2c1CN(C(=O)c1cscn1)CC2 | -11 | 1.4 |
| CN(Cc1ccco1)S(=O)(=O)c1ccc2c(c1)OC[C@@H](C(=O)N1CCCCC1)O2 | -18 | 3.03 |
| CC1CCC2=NN(C(=O)c3cccnc3)C(O)(C(F)(F)F)C2C1 (stereo unspecified) | -40 | 4.74 |
| CCn1nc(C)c(CNc2nnc(C(F)(F)F)s2)c1C | -15 | 2.77 |
